# Reference: article PMC4336329 (PLoS ONE, 2015)
# Screen size: about 310,000 compounds; about 2,200 (0.71%) showed an effect of 50% or more. Effects have a minus sign here. This is one part of the list.
# Target: human ether-à-go-go-related gene (hERG) potassium channel (human, UniProt Q12809)
# Experiment: primary screen, population patch clamp on CHO cells stably expressing hERG
# Sequence of human ether-à-go-go-related gene (hERG) potassium channel (Q12809 whole entry, looked up): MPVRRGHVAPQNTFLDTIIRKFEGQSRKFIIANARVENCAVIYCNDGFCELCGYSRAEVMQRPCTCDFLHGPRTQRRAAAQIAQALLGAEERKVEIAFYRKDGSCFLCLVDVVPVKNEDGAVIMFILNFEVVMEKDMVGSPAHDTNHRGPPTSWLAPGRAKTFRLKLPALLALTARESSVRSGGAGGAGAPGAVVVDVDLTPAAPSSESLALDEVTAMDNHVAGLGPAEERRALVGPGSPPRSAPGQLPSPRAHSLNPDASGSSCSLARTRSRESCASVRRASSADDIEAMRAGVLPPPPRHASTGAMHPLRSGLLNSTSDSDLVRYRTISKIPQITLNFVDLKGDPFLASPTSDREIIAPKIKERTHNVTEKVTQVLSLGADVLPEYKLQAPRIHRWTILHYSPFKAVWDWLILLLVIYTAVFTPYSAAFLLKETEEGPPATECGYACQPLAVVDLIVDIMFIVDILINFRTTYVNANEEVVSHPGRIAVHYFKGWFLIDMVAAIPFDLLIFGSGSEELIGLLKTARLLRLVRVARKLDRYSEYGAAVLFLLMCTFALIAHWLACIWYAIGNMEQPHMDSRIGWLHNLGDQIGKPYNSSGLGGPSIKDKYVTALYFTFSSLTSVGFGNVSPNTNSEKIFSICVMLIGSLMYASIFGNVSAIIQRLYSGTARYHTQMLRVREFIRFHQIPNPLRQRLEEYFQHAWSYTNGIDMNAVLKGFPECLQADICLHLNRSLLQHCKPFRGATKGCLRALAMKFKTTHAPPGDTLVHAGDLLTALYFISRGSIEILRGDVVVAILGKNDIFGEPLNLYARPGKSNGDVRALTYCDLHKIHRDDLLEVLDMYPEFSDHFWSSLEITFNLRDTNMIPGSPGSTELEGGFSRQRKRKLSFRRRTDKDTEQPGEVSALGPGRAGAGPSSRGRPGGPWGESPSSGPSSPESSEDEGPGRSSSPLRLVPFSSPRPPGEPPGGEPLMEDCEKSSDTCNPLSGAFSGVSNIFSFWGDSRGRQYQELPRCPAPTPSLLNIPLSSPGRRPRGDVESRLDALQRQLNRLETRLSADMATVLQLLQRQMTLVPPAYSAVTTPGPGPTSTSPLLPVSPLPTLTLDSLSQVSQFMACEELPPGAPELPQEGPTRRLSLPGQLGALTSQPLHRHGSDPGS
row,SMILES,"hERG current change (%, negative = inhibition) at 1uM [%]"
1,CCOc1ccccc1NC(=O)CSc1nc2c(c(=O)n1C)SC(C)C2 (stereo not drawn),-2.14
2,O=C(NC(Cc1ccccc1)c1ccc2c(c1)OCCCO2)c1ccccc1 (stereo not drawn),12.2
3,COc1ccc(-n2c(=O)c3ccccc3n(CC(=O)NCC3CCCO3)c2=O)cc1 (stereo not drawn),15
4,CN(C)c1ccc(C(=O)OCc2ccc(Br)cc2)cc1,12.9
5,CN1CCCN(S(=O)(=O)c2cccc(C#N)c2)CC1.Cl,7.53
6,O=C(OCc1cc(Cl)ccc1OC(F)F)c1cccnc1,8.24
7,CCOC(=O)c1cc(C#N)c(SC)nc1C,7.27
8,CC(C)(C)S(=O)(=O)/C(C#N)=N/Nc1ccc(S(N)(=O)=O)cc1,1.18
9,COc1ccc(NC2=Nc3ccccc3CC2)cc1,-1.5
10,COc1ccc(CCNc2ncnc3sccc23)cc1OC,9.31
11,COc1ccc(CC(=O)Nc2cc(C)on2)cc1OC,4.43
12,NS(=O)(=O)Oc1ccccc1,12
13,COc1ccc(NC(=O)C2CCCN2C(=O)NC2CCCCC2)cc1 (stereo not drawn),-0.24
14,Nc1ccc[n+](CC(=O)c2ccccc2)c1.[Br-],3.78
15,O=C(/C=C/c1ccccc1)NC1CCSC1=O (stereo not drawn),8.63
16,O=C1C2C3C=CC(C3)C2C(=O)N1c1ccccc1 (stereo not drawn),16.7
17,Cc1ccc(C(C(=O)NCc2ccccc2)N(Cc2cccs2)C(=O)c2ccc3c(c2)OCCO3)cc1 (stereo not drawn),5.38
18,Cc1sc(NC(=O)c2ccco2)c(CN2CCC(C)CC2)c1C,1.59
19,CC(C)CC(NC=O)C(=O)O.COc1cc2c(cc1OC)C13CCN4CC5=CCOC6CC(=O)N2C1C6C5CC43 (stereo not drawn),11.7
20,COc1cc2c3cc1Oc1cc(ccc1O)C[C@@H]1c4c(cc(OC)c(O)c4Oc4cccc(c4)C[C@@H]3N(C)CC2)CC[N+]1(C)C.Cl.O.[Cl-],13.1
21,O=C(CCn1c(=S)[nH]c2cc3c(cc2c1=O)OCO3)NCc1ccc(Cl)cc1,18.2
22,O=C(CSc1nnc(Cc2ccccc2)o1)NC1CCCCC1,3.71
23,CCOC(=O)Cn1nnc(-c2cc(OC)c(OC)c(OC)c2)n1,17.2

row,SMILES,"hERG current change (%, negative = inhibition) at 1uM [%]"
1,CCn1c(=O)n(CC(=O)Nc2ccc(F)cc2)c(=O)c2ccccc21,9.81
2,O=C(O)/C=C/S(=O)(=O)c1ccc2ccccc2c1,9.53
3,CCOc1ccc(N(CC(=O)Nc2ccccc2C)S(=O)(=O)c2c(C)[nH]c(=O)[nH]c2=O)cc1,10.7
4,Cl.O.Oc1ccc2c3c1O[C@H]1c4[nH]c5ccccc5c4C[C@@]4(O)C(C2)N(CC2CC2)CC[C@]314,-16.4
5,CCN(CC)CCN1CCn2c3c(c4cc(C)ccc42)CCCC31.Cl (stereo not drawn),-49.8
6,Cc1nnsc1-c1onc(C)c1C(=O)O/N=C/c1ccc(Cl)cc1,10.8
7,CCCOc1cccc(/C=N/NC(=O)c2csc(C)c2C)c1,10.5
8,O=C(NCc1ccon1)c1ccc(OC2CCN(CCc3ccccc3)CC2)cc1,-26
9,CC(C)(C)NC(=O)CSc1nc(O)cc(=O)n1-c1ccccc1,6.42
10,CCc1nnc(NC(=O)CCC(=O)NC2CC2)s1,7.3
11,COc1ccc(C(=O)Nc2ccc3c(c2)OCCO3)cc1S(=O)(=O)N1CCOCC1,11
12,Brc1cnc(N2CCCC2)nc1N1CCOCC1,-0.102
13,COc1cccc(CNC2CCCc3ccccc32)c1OC (stereo not drawn),11.5
14,O=C(NCc1ccccc1)C12CN(Cc3ccccc3)CC1C(c1cccc([N+](=O)[O-])c1)=NO2 (stereo not drawn),9.37
15,CCCN(CC(=O)Nc1ccccc1C)C(=O)C1CCN(S(=O)(=O)c2cccc(C(F)(F)F)c2)CC1,11.4
16,CCOC(=O)N/N=C/c1cn(CCCOc2ccccc2)c2ccccc12,20.2
17,CCOC(=O)c1ccc(N2Cc3ccccc3C2=NC(=O)c2cccc([N+](=O)[O-])c2)cc1,-3.28
18,CCC(C)CCN1C(Nc2ccccc2)=NC[C@@H]1Cc1ccccc1 (stereo partly drawn),-17.5
19,CCOC(=O)c1c(NC(C)=O)sc2c(OC(C)=O)cccc12,17.5
20,CCOC(=O)C1CCCN(C(=O)C(=O)c2cn(CC(=O)N3CCOCC3)c3ccccc23)C1 (stereo not drawn),-3.27
21,COC(=O)c1ccc(Cn2nc(C)cc2C)cc1,17.4
22,O=C(CC1SC(=O)N(c2ccccc2)C1=O)Nc1ccc(Br)cc1 (stereo not drawn),11.5
23,CC1CCC(=O)N(CCSc2ccccc2)CC1 (stereo not drawn),9.47

row,SMILES,"hERG current change (%, negative = inhibition) at 1uM [%]"
1,Cc1ccc(OCC(=O)N(Cc2ccco2)C2CCS(=O)(=O)C2)cc1C (stereo not drawn),-9.82
2,COc1ccc2c(c1)O/C(=C\c1ccccc1C)C2=O,11.9
3,CCOC(=O)Cc1csc(NC(=O)c2ccc([N+](=O)[O-])cc2[N+](=O)[O-])n1,13.7
4,COc1cccc(C2=CC(=O)CC(c3ccco3)C2)c1 (stereo not drawn),15.7
5,Cc1ccccc1NC(=O)Cn1cc(C(=O)C2CC2)c2ccccc21,12
6,COc1ccc(S(=O)(=O)N(C)CC(=O)Nc2ccccc2SC)cc1Cl,11.6
7,COc1ccccc1N1CCN(C(=O)C(=O)c2c(C)n(C)c3ccccc23)CC1,-0.112
8,Cc1cccc(NC(=O)CSCC(=O)N2CCN(c3cccc(C(F)(F)F)c3)CC2)c1,2.24
9,CCN(CC(=O)Nc1ccccc1C(F)(F)F)C(=O)c1cccc(N2C(=O)CCC2=O)c1,1.61
10,CCOc1ccccc1/C=N/n1nnnc1N,14.2
11,Cc1ccc(O)c(N=Nc2ccc(S(=O)(=O)N3CCCC3)cc2)c1,16.6
12,CCOC(=O)C1C(=O)NC(N2CCN(Cc3ccccc3)CC2)=NC1c1ccccc1 (stereo not drawn),-3.77
13,CCOC(=O)C(NC(=O)Nc1cccc(C)n1)(OCC(F)(F)F)C(F)(F)F (stereo not drawn),1.04
14,COc1cccc2c(=O)c3cccc(N)c3[nH]c12,13.3
15,CC(=O)c1ccc(Sc2ccccc2N)c([N+](=O)[O-])c1,12.4
16,COc1ccc(CN2[C@@H](CC(C)=O)c3cc(C(F)(F)F)ccc3S2(=O)=O)cc1,10.6
17,Brc1ccc2ncnc(NCc3ccco3)c2c1,0.0379
18,Cc1ccc(/C=C/C(=O)N2CCCC(C(N)=O)C2)o1 (stereo not drawn),-0.805
19,CC(C)NC(=S)N1CCN(c2ncccn2)CC1,1.92
20,COc1ccc2c(c1)c(C(O)CN1CCC(Cc3ccccc3)CC1)c(C)n2C (stereo not drawn),-37.2
21,COc1ccc(NC(=O)N(Cc2cc3cc(C)ccc3[nH]c2=O)CC2CCCO2)cc1 (stereo not drawn),10.5
22,O=C(Cc1ccc(S(=O)(=O)N2CCOCC2)s1)NC1CCCCC1,-17.1
23,COc1cc2cnc(-c3ccccc3)c(-c3cccc(C(F)(F)F)c3)c2cc1OC,16.3

row,SMILES,"hERG current change (%, negative = inhibition) at 1uM [%]"
1,Cc1cc(C)n(C(=O)c2ccc(Cn3nc(C)c(Br)c3C)o2)n1,-6.69
2,N#Cc1c(NC(=O)c2cc(C3CC3)on2)sc2c1CCC2,12
3,CCOC(=O)c1c(C)[nH]c(C(=O)OC(C)C(=O)Nc2ccccc2OC)c1C (stereo not drawn),5.43
4,Cc1[nH]nc2c1C(c1ccc(Cl)cc1)C(C#N)=C(N)O2 (stereo not drawn),9.67
5,Cn1c(NC(=O)c2cccc(Cn3cc(Cl)cn3)c2)nc2ccccc21,9.95
6,Cc1cc(C)nc(N/N=C/C2=C(O)CC(c3ccc(F)cc3)CC2=O)n1 (stereo not drawn),12.2
7,CC(=O)N1CCc2ccc(S(=O)(=O)Nc3ccccc3Cl)cc21,1.81
8,CCC1CCCCN1CCCNC(=O)CN1C(=O)c2cccnc2Oc2ccc(Cl)cc21 (stereo not drawn),10.2
9,CCCOc1ccccc1/C=N/Nc1ccnc(=O)[nH]1,6.42
10,COc1ccccc1/C=C/C(=O)NCCc1ccccn1,21.6
11,OC1(CN2CCOCC2)C2CN3CCN(C2)CC1(c1ccccc1)C3 (stereo not drawn),-1.06
12,CC(CC(=O)O)CC(=O)Nc1ccc(Br)cc1 (stereo not drawn),11.9
13,C=CCOc1ccccc1CNCCNC(=O)c1nonc1N.Cl,0.597
14,CC(=O)NC1(C(F)(F)F)C(=O)Nc2c1c(=O)[nH]c(=O)n2CC(C)C (stereo not drawn),11.5
15,O=C(CNC(=O)c1ccc(Cl)cc1)NCC(F)(F)F,11.1
16,FC(F)(F)c1nnc2sc(-c3cccs3)nn12,3.44
17,Cc1ccc(C(=O)O)cc1-n1c(=O)n(Cc2ccccc2)c(=O)c2[nH]cnc21,11.5
18,Cc1cccn2c(=O)c3cc(C(=O)N4CCC5(CC4)OCCO5)n(C)c3nc12,-9.7
19,CCNC(=O)NC(=O)CSc1nc2ccccc2n1CC(C)C,-3.13
20,O=C(c1ccco1)N1CCN(Cc2nc3ccc([N+](=O)[O-])cc3c(=O)n2-c2ccccc2F)CC1,-39.3
21,Cc1ccc(C(=O)COC(=O)c2c(C)cc(=O)oc2C)cc1[N+](=O)[O-],5.38
